Laboratory results reported in PMC4605303.
Results are given in words; binding and its absence hold for the method and conditions named. Binding seen in cells or lysates may run through a third protein. Some binding calls cover weakened binding; strength is not graded here.

By UniProt entry, the sequences of proteins in these tests, tags left out.
UniProt Q9UHI6: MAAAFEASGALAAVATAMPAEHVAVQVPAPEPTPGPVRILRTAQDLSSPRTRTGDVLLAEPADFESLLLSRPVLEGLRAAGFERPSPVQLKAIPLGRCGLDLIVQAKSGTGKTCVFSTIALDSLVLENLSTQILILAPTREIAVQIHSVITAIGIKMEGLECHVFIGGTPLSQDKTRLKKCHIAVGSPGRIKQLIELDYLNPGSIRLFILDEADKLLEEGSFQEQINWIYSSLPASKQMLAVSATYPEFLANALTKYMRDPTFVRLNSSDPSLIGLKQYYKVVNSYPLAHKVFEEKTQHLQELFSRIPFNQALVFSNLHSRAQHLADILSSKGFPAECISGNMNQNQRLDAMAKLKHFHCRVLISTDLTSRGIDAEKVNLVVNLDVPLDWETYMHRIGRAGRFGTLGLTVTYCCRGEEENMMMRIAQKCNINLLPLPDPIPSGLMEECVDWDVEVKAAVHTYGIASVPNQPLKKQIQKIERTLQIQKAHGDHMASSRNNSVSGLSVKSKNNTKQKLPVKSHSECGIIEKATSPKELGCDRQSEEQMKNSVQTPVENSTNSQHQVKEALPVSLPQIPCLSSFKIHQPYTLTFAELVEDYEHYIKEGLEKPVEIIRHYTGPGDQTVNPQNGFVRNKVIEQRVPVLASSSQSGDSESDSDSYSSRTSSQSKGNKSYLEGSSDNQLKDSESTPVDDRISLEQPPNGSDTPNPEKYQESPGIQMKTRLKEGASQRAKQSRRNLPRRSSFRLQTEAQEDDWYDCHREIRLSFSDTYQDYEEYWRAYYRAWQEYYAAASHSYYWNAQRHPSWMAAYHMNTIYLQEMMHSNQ
UniProt P57678: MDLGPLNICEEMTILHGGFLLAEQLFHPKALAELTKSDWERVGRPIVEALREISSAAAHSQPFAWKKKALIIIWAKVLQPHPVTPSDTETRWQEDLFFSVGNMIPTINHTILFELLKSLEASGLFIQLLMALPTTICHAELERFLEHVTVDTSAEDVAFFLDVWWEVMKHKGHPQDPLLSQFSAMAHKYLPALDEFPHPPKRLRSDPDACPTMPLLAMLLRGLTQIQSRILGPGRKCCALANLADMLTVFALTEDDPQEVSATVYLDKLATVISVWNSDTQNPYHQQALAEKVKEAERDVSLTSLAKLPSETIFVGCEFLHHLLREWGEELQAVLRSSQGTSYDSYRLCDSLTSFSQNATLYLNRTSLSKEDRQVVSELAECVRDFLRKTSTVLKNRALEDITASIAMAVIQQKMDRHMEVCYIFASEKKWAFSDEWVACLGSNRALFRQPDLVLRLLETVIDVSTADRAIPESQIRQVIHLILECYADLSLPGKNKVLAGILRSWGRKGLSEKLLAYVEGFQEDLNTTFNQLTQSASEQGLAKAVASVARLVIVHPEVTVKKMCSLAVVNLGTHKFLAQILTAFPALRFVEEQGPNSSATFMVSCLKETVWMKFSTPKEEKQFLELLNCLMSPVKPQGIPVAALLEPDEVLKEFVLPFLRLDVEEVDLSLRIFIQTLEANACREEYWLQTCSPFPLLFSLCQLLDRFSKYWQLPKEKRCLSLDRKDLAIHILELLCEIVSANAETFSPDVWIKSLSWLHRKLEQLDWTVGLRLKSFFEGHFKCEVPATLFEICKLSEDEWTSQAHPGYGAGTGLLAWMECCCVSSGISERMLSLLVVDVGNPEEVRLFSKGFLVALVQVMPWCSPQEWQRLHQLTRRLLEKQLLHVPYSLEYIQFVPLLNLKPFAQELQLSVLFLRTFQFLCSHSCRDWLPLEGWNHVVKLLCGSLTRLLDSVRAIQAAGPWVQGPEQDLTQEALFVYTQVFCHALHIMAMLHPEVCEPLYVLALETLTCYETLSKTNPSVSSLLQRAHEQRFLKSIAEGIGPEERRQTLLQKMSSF
UniProt P04406: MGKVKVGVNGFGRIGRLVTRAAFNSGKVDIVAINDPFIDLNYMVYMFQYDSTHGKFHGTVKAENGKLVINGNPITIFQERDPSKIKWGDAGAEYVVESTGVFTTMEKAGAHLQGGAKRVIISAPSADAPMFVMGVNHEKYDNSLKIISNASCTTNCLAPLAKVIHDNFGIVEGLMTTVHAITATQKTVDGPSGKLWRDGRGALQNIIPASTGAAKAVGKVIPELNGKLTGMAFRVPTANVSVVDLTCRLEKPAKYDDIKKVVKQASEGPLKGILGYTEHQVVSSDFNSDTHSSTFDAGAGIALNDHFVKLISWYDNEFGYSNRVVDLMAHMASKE
UniProt Q8WXD5: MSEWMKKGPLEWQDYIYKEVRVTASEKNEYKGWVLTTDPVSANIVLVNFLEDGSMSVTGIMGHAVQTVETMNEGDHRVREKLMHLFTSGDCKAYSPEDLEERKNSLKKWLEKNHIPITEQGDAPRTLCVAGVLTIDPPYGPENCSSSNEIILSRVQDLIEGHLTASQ
UniProt O14893: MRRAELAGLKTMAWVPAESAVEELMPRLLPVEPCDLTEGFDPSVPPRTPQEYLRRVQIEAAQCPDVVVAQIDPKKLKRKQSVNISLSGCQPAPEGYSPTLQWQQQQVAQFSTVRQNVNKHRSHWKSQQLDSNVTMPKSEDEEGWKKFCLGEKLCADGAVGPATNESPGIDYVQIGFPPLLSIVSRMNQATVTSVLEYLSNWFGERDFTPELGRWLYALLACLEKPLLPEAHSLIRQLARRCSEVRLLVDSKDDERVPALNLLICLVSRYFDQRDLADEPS
UniProt Q16637: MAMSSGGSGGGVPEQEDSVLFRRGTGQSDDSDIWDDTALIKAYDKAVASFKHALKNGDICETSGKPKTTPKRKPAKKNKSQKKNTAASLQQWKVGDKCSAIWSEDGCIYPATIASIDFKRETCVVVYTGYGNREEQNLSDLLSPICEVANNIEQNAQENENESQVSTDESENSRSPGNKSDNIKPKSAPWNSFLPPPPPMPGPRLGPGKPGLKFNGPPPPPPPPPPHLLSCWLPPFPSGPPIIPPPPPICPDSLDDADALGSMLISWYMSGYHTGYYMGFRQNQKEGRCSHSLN
UniProt Q9H840: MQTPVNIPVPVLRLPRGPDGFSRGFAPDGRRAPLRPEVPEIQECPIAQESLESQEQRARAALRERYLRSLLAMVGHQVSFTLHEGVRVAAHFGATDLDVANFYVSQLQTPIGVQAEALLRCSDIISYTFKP
UniProt Q9UHK0: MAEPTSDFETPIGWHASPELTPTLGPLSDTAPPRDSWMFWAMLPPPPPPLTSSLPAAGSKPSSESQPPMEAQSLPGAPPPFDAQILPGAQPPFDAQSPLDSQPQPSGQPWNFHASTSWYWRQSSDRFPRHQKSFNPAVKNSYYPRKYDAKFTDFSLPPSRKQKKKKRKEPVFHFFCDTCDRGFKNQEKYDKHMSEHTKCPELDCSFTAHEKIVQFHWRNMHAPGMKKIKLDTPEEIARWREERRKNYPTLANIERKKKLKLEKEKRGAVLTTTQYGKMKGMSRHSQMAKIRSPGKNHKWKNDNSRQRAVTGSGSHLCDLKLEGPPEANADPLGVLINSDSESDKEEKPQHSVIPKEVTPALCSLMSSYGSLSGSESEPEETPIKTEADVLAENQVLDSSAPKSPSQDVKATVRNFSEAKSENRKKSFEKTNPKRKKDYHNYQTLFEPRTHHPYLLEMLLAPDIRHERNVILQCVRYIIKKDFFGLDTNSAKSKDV

How the values were obtained:
Test in all cases: proximity ligation; in situ PLA (DuolinkII) on fixed, permeabilized HeLa cells with primary antibodies against the two endogenous proteins
[1] = biological target: Gemin3 (endogenous, HeLa) (human (endogenous in HeLa)) (UniProt Q9UHI6)
[2] = biological target: Gemin4 (endogenous, HeLa) (human (endogenous in HeLa)) (UniProt P57678)
[3] = biological target: T1, Gemin8 (endogenous, HeLa) (human (endogenous in HeLa)) (UniProt Q9NWZ8)
T1 sequence: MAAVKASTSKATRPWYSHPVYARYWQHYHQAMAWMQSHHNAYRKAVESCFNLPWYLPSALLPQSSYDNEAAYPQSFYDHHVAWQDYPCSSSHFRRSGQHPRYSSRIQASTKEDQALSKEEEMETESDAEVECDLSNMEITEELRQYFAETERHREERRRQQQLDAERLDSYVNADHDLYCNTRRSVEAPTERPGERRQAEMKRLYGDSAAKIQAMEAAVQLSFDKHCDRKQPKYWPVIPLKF

[4] = biological target: GAPDH (endogenous, HeLa) (human (endogenous in HeLa)) (UniProt P04406)
[5] = biological target: Gemin6 (endogenous, HeLa) (human (endogenous in HeLa)) (UniProt Q8WXD5)
[6] = biological target: Gemin2 (endogenous, HeLa) (human (endogenous in HeLa)) (UniProt O14893)
[7] = biological target: SMN (endogenous, HeLa) (human (endogenous in HeLa)) (UniProt Q16637)
[8] = biological target: Gemin7 (endogenous, HeLa) (human (endogenous in HeLa)) (UniProt Q9H840)

## NUFIP (endogenous, HeLa) (from UniProt Q9UHK0 1-495)
[1]
  binding: binds
[2]
  binding: binds
[3]
  binding: binds
[4]
  binding: no binding
[5]
  binding: binds
[6]
  binding: binds
[7]
  binding: binds
[8]
  binding: binds
